Structures are written as SMILES. Several values for one entry are separate records, joined by “and”; a condition that tells them apart may be missing. Equal entries are not always repeated. Structures can show the parent of a compound that is named as a salt. ± gives the standard deviation of the averaged measurements. In all, about 2,000 compounds were measured (“relative cell viability vs DMSO, compound + 0.2 uM CuET”: median about 1, lowest 2% from about 0.25 on). This is one part of the list.

This experiment relates to TE10. Briefly: relative cell viability vs DMSO, compound + 0.2 uM CuET (fraction); TE10 is an esophageal squamous carcinoma line; higher = less cytotoxic. Particulars: 2 µM; co-treatment: CuET (bis(diethyldithiocarbamate)copper) 0.2 uM; 48 h. Here is the method: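 TE10 ESCC cells (1,000/well, 384-well plates) were treated with Selleck bioactive library compounds at 2 uM combined with 0.2 uM CuET (copper diethyldithiocarbamate) for 48 h. Viability was read by CellTiter-Glo and expressed relative to DMSO wells. Two technical replicates (A, B).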
With `C[C@H]1O[C@@H](O[C@H]2[C@@H](O)C[C@H](O[C@H]3[C@@H](O)C[C@H](O[C@H]4CC[C@@]5(C)[C@H](CC[C@@H]6[C@@H]5C[C@@H](O)[C@]5(C)[C@@H](C7=CC(=O)OC7)CC[C@]65O)C4)O[C@@H]3C)O[C@@H]2C)C[C@H](O)[C@@H]1O` [Digoxin], the relative cell viability was found to be 0.847 ± 0.015. In the case of `O=C1c2c(O)cccc2C([C@@H]2O[C@H](CO)[C@@H](O)[C@H](O)[C@H]2O)c2cc(CO)cc(O)c21` (some centres not stated) [Aloin], the relative cell viability came to 1.1 ± 0.12. Regarding `O=C(Nc1cccc(C(F)(F)F)c1)Nc1cc(S(=O)(=O)NC2CC2)ccc1-c1ccsc1`, the relative cell viability was found to be 1.04 ± 0.11. In the case of `CC(C(=O)O)c1ccc2c(c1)[nH]c1ccc(Cl)cc12` (configuration not stated) [Carprofen], the relative cell viability worked out at 1.22 ± 0.068. The result for `C=CCc1cccc(/C=N/NC(=O)CN2CCN(Cc3ccccc3)CC2)c1O` reads 0.903 ± 0.21; that for `CC(NC(=O)C(Cc1ccccc1)NC(=O)OCc1ccccc1)C(=O)CF` (configuration not stated), 1.14 ± 0.028.

For `CN(C)C(=O)C(CCN1CCC(O)(c2ccc(Cl)cc2)CC1)(c1ccccc1)c1ccccc1` [Loperamide HCl], the relative cell viability worked out at 1.03 ± 0.023. The same measure for `Cc1ccccc1C(=O)Nc1ccc(C(=O)N2CCCC(O)c3cc(Cl)ccc32)c(C)c1` (configuration not stated) [Tolvaptan]: 1.05 ± 0.075; for `NC(=O)c1ccc(-c2nc(-c3ccc4c(c3)OCCO4)c(-c3ccccn3)[nH]2)cc1`: 0.996 ± 0.12; for `O=C1NC(=NCc2cccs2)S/C1=C\c1ccc2ncccc2c1`: 1.12 ± 0.078. As to `CN(C)CC(=O)Nc1ccc2[nH]c(=O)c3ccccc3c2c1`, the relative cell viability is 1.14 and 1.03. The same measure for `CC(C)(C)NCC(O)COc1cccc2c1CCC(=O)N2` (configuration not stated) [Carteolol HCl]: 1.09 ± 0.13; for `CNC(=O)c1cc(Oc2ccc(NC(=O)Nc3ccc(Cl)c(C(F)(F)F)c3)c(F)c2)ccn1` [Regorafenib (BAY 73-4506)]: 1.05 ± 0.12; for `O=C(Nc1ccccc1-c1cn2c(CN3CCNCC3)csc2n1)c1cnc2ccccc2n1`: 1.12 ± 0.22. The result for `O=C(O)c1cc(/N=N/c2ccc(O)c(C(=O)O)c2)ccc1O` [Olsalazine Sodium] reads 1.016 ± 0.0059. Take `C[C@]1(O)C[C@@H](c2nc(-c3ccc4ccc(-c5ccccc5)nc4c3)c3c(N)nccn32)C1` [OSI-906 (Linsitinib)]: the relative cell viability turned out to be 1.08 ± 0.019.

On to `O=C(C1CCCCC1)N1CC(=O)N2CCc3ccccc3C2C1` (configuration not stated) [Praziquantel], for which the relative cell viability was determined as 1.08 ± 0.025.

As to `C[C@@H]1CCO[C@H]2Cn3cc(C(=O)NCc4ccc(F)cc4F)c(=O)c(O)c3C(=O)N12`, the relative cell viability worked out at 1.09 ± 0.059. The same measure for `COc1cc(C=CC(=O)N2CCC=CC2=O)cc(OC)c1OC` [Piperlongumine]: 0.392 ± 0.035; for `COc1ccc2c(c1)c(CC(=O)O)c(C)n2C(=O)c1ccc(Cl)cc1` [Indomethacin]: 1.06 ± 0.11.

As to `Nc1nc2ccc(OC(F)(F)F)cc2s1` [Riluzole], the relative cell viability turned out to be 1.062 ± 0.0062. The result for `CN1CCC(=C2c3ccccc3CCc3cccnc32)CC1` [Azatadine dimaleate] reads 1.03 ± 0.012; that for `OC[C@H]1O[C@H](O[C@]2(CCl)O[C@H](CCl)[C@@H](O)[C@@H]2O)[C@H](O)[C@@H](O)[C@H]1Cl` [Sucralose], 1.11 ± 0.16; that for `CNC(=O)c1cc(Oc2ccc(NC(=O)Nc3cc(C(C)(C)C)nn3-c3ccc4ncccc4c3)c(F)c2)ccn1` [DCC-2036 (Rebastinib)], 0.991 ± 0.03. As for `CC(C)C[C@H](NC(=O)[C@@H](NC(=O)c1cccc(-c2ccccc2)n1)[C@@H](C)O)B(O)O`, the relative cell viability amounted to 0.3687 ± 0.0033. As to `CCc1cc(Nc2nccc(-c3c(-c4ccc(OC)c(C(=O)Nc5c(F)cccc5F)c4)nc4ccccn34)n2)c(OC)cc1N1CCC(N2CCN(S(C)(=O)=O)CC2)CC1`, the relative cell viability was found to be 1 ± 0.058. The result for `Nc1ccn([C@H]2CC[C@@H](CO)O2)c(=O)n1` [Zalcitabine] reads 1.15 ± 0.019; that for `O=C(Nc1ccccc1C(=O)NC1CCCCNC1=O)c1cc2ccccc2s1` (configuration not stated), 0.955 ± 0.061; that for `C[C@@H](O)[C@H]1C(=O)N2C(C(=O)O)=C(S[C@@H]3CN[C@H](CNS(N)(=O)=O)C3)[C@H](C)[C@H]12` [Doripenem Hydrate], 1.16 ± 0.21. The result for `CC(C)(C#N)c1cc(Cn2cncn2)cc(C(C)(C)C#N)c1` [Anastrozole] reads 1.1 ± 0.11; that for `COc1cc2nccc(Oc3ccc(NC(=O)Nc4cc(C)on4)c(Cl)c3)c2cc1OC` [Tivozanib (AV-951)], 1.2 ± 0.016.

Regarding `CN(C)CCOC(C)(c1ccccc1)c1ccccn1` (configuration not stated) [Doxylamine Succinate], the relative cell viability worked out at 1.28 ± 0.022.

For `C=CCNC(N)=S` [Allylthiourea], the relative cell viability worked out at 1.27 ± 0.073. The same measure for `CNC(=O)c1cccc(-c2ccc3c(N4CCOC[C@@H]4C)nc(N4CCOC[C@@H]4C)nc3n2)c1`: 0.645 ± 0.018.

In the case of `COc1cccc(-c2cc(=O)c3ccccc3o2)c1N`, the relative cell viability amounted to 1.21 ± 0.026. The result for `O=C(CCc1ccc(O)cc1)c1c(O)cc(O)cc1O` [Phloretin] reads 1.11 ± 0.015.

Regarding `CC[C@H](C)[C@H](N)C1=N[C@H](C(=O)N[C@@H](CC(C)C)C(=O)N[C@H](CCC(=O)O)C(=O)N[C@H](C(=O)N[C@H]2CCCCNC(=O)[C@H](CC(N)=O)NC(=O)[C@@H](CC(=O)O)NC(=O)[C@H](Cc3cnc[nH]3)NC(=O)[C@@H](Cc3ccccc3)NC(=O)[C@H]([C@@H](C)CC)NC(=O)[C@@H](CCCN)NC2=O)[C@@H](C)CC)CS1` [Bacitracin], the relative cell viability is 1.143 ± 0.0022. The result for `CN(CC(=O)N(Cc1ccc(C2CCCCC2)cc1)c1ccc(C(=O)O)cc1)S(=O)(=O)c1c(F)c(F)c(F)c(F)c1F` reads 0.2808 ± 0.0021; that for `OC(CNCC(O)C1CCc2cc(F)ccc2O1)C1CCc2cc(F)ccc2O1` (configuration not stated) [Nebivolol], 0.889 ± 0.012. The same measure for `O=C(NCc1ccccc1)c1csc(Nc2ccncn2)n1` [Thiazovivin]: 1.27 ± 0.18; for `CNC[C@H](O)c1ccc(O)c(O)c1` [Epinephrine HCl]: 1.13 ± 0.03.

Consider `CNC[C@H](O)c1ccc(O)c(O)c1` [Epinephrine Bitartrate], for which the relative cell viability was 0.964 ± 0.065. The result for `CN1CCN(CCCN2c3ccccc3Sc3ccc(C(F)(F)F)cc32)CC1` [Trifluoperazine 2HCl] reads 1.11 ± 0.07. The same measure for `CNCc1ccc(-c2cc(-c3nc(-c4ccc(S(=O)(=O)C(C)C)cc4)cnc3N)on2)cc1`: 0.693 ± 0.048; for `CC(S)C(=O)NCC(=O)O` (configuration not stated) [Tiopronin]: 1.1 ± 0.015; for `C[C@@H]1COCCN1c1cc(C2(S(C)(=O)=O)CC2)nc(-c2cccc3[nH]ccc23)n1`: 0.637 ± 0.031. The same measure for `Cc1cc2c(F)c(Oc3ncnn4cc(OC[C@@H](C)OC(=O)[C@H](C)N)c(C)c34)ccc2[nH]1`: 0.986 ± 0.16.

(Values after the supplement of paper PMC10670038.)
